Laboratory results: article PMC4746130
No constants are given. Whether binding was seen depends on the method and setting. Binding seen in cells or lysates may run through a third protein. Some binding calls cover weakened binding; strength is not graded here. For some assays here: Sequences can lack the tags named with a protein.

Chains of the proteins cited; added tags and fusions are not shown.
UniProt Q99873: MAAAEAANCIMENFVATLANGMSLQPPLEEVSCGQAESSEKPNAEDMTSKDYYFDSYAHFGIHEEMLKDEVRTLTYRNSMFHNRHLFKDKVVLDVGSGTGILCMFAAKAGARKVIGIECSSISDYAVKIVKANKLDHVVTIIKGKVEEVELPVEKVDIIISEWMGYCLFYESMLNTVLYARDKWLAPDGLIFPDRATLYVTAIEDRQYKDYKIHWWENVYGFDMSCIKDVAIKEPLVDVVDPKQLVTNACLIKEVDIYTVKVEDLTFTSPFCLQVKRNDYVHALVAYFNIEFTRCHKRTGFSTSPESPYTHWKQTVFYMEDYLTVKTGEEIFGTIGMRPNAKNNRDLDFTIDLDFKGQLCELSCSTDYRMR
UniProt Q96LA8: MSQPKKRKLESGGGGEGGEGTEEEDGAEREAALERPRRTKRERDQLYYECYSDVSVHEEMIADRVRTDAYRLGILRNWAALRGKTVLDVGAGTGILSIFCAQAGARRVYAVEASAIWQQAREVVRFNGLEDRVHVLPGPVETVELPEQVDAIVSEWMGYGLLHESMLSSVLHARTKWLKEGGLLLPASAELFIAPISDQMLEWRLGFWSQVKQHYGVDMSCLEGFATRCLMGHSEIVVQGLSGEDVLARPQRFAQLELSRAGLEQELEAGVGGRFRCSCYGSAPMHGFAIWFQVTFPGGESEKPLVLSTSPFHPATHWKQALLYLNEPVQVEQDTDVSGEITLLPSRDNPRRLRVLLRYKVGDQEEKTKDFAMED
UniProt P35226: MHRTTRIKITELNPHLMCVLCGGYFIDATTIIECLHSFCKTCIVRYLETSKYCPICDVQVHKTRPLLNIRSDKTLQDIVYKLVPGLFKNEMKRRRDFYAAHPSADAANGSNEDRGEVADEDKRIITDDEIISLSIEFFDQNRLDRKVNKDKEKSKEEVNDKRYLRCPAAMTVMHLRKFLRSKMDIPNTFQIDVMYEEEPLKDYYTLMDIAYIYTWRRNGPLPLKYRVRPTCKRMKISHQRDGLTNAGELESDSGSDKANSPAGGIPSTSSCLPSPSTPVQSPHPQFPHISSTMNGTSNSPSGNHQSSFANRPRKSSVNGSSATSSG

T1: PRMT4, endogenous (human (endogenous in HEK293)) (UniProt Q86X55)
T1 sequence: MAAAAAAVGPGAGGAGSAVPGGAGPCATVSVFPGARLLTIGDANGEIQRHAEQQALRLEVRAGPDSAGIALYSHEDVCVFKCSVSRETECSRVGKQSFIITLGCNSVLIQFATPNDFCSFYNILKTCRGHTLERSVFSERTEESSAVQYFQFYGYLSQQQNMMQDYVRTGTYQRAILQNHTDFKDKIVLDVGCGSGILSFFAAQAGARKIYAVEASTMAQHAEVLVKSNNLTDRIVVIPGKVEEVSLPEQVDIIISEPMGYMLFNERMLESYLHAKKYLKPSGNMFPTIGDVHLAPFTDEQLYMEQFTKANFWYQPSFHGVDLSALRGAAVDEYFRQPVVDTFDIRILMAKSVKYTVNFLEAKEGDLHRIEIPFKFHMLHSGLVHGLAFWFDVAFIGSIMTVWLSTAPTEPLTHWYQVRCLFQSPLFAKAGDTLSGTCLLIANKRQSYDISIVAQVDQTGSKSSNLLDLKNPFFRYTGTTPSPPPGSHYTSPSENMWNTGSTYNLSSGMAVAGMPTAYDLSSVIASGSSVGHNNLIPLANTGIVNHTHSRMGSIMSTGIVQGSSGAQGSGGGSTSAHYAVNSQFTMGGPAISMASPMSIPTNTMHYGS


Key:
[1] = target: T1, PRMT4, endogenous (human (endogenous in HEK293)); experiment: co-IP; HEK293 protein extracts; immunoprecipitation with anti-PRMT1 or anti-PRMT4, beads alone and isotype-specific IgG as controls; Western blot for endogenous BMI1 and HPH2
[2] = target: PRMT1, endogenous (human (endogenous in HEK293)) (UniProt Q99873); experiment: as above
[3] = target: Protein arginine methyltransferase 6 (PRMT6), endogenous (human (endogenous in HEK293)) (UniProt Q96LA8); experiment: co-IP; as the anti-PRMT6 IPs from HEK293 extracts, with ethidium bromide added in the IPs; data not shown
[4] = target: Protein arginine methyltransferase 6 (PRMT6), endogenous (human (endogenous in HEK293)) (UniProt Q96LA8); experiment: co-IP; HEK293 protein extracts (untransfected or transfected, harvested 48 h after transfection); immunoprecipitation of endogenous PRMT6 with anti-PRMT6, isotype-specific IgG as control; Western blot of precipitates
[5] = target: Protein arginine methyltransferase 6 (PRMT6), endogenous (human (endogenous in HEK293)) (UniProt Q96LA8); experiment: co-IP; Superose 6 gel filtration fractions of extracts of transfected HEK293 cells; immunoprecipitation with anti-PRMT6 from each fraction; Western blot for the tags

binding [1] | binding [2] | binding [3] | binding [4] | binding [5] | Molecule
no binding | no binding | binds | binds | – | BMI1, endogenous (from UniProt P35226 1-326)
– | – | binds | binds | binds | Myc-tagged HPH2, overexpressed (protein, UniProt Q8IXK0 1-858) MENELPVPHTSSSACATSSTSGASSSSGCNNSSSGGSGRPTGPQISVYSGIPDRQTVQVIQQALHRQPSTAAQYLQQMYAAQQQHLMLQTAALQQQHLSSAQLQSLAAVQQASLVSNRQGSTSGSNVSAQAPAQSSSINLAASPAAAQLLNRAQSVNSAAASGIAQQAVLLGNTSSPALTASQAQMYLRAQMLIFTPTATVATVQPELGTGSPARPPTPAQVQNLTLRTQQTPAAAASGPTPTQPVLPSLALKPTPGGSQPLPTPAQSRNTAQASPAGAKPGIADSVMEPHKKGDGNSSVPGSMEGRAGLSRTVPAVAAHPLIAPAYAQLQPHQLLPQPSSKHLQPQFVIQQQPQPQQQQPPPQQSRPVLQAEPHPQLASVSPSVALQPSSEAHAMPLGPVTPALPLQCPTANLHKPGGSQQCHPPTPDTGPQNGHPEGVPHTPQRRFQHTSAVILQLQPASPPQQCVPDDWKEVAPGEKSVPETRSGPSPHQQAIVTAMPGGLPVPTSPNIQPSPAHETGQGIVHALTDLSSPGMTSGNGNSASSIAGTAPQNGENKPPQAIVKPQILTHVIEGFVIQEGAEPFPVGRSSLLVGNLKKKYAQGFLPEKLPQQDHTTTTDSEMEEPYLQESKEEGAPLKLKCELCGRVDFAYKFKRSKRFCSMACAKRYNVGCTKRVGLFHSDRSKLQKAGAATHNRRRASKASLPPLTKDTKKQPTGTVPLSVTAALQLTHSQEDSSRCSDNSSYEEPLSPISASSSTSRRRQGQRDLELPDMHMRDLVGMGHHFLPSEPTKWNVEDVYEFIRSLPGCQEIAEEFRAQEIDGQALLLLKEDHLMSAMNIKLGPALKIYARISMLKDS
no binding | no binding | binds | binds | – | HPH2, endogenous (protein, UniProt Q8IXK0 1-858) MENELPVPHTSSSACATSSTSGASSSSGCNNSSSGGSGRPTGPQISVYSGIPDRQTVQVIQQALHRQPSTAAQYLQQMYAAQQQHLMLQTAALQQQHLSSAQLQSLAAVQQASLVSNRQGSTSGSNVSAQAPAQSSSINLAASPAAAQLLNRAQSVNSAAASGIAQQAVLLGNTSSPALTASQAQMYLRAQMLIFTPTATVATVQPELGTGSPARPPTPAQVQNLTLRTQQTPAAAASGPTPTQPVLPSLALKPTPGGSQPLPTPAQSRNTAQASPAGAKPGIADSVMEPHKKGDGNSSVPGSMEGRAGLSRTVPAVAAHPLIAPAYAQLQPHQLLPQPSSKHLQPQFVIQQQPQPQQQQPPPQQSRPVLQAEPHPQLASVSPSVALQPSSEAHAMPLGPVTPALPLQCPTANLHKPGGSQQCHPPTPDTGPQNGHPEGVPHTPQRRFQHTSAVILQLQPASPPQQCVPDDWKEVAPGEKSVPETRSGPSPHQQAIVTAMPGGLPVPTSPNIQPSPAHETGQGIVHALTDLSSPGMTSGNGNSASSIAGTAPQNGENKPPQAIVKPQILTHVIEGFVIQEGAEPFPVGRSSLLVGNLKKKYAQGFLPEKLPQQDHTTTTDSEMEEPYLQESKEEGAPLKLKCELCGRVDFAYKFKRSKRFCSMACAKRYNVGCTKRVGLFHSDRSKLQKAGAATHNRRRASKASLPPLTKDTKKQPTGTVPLSVTAALQLTHSQEDSSRCSDNSSYEEPLSPISASSSTSRRRQGQRDLELPDMHMRDLVGMGHHFLPSEPTKWNVEDVYEFIRSLPGCQEIAEEFRAQEIDGQALLLLKEDHLMSAMNIKLGPALKIYARISMLKDS
– | – | binds | binds | binds | GFP-tagged CBX8, overexpressed (protein, UniProt Q9HC52 1-389) MELSAVGERVFAAEALLKRRIRKGRMEYLVKWKGWSQKYSTWEPEENILDARLLAAFEEREREMELYGPKKRGPKPKTFLLKAQAKAKAKTYEFRSDSARGIRIPYPGRSPQDLASTSRAREGLRNMGLSPPASSTSTSSTCRAEAPRDRDRDRDRDRERDRERERERERERERERERERGTSRVDDKPSSPGDSSKKRGPKPRKELPDPSQRPLGEPSAGLGEYLKGRKLDDTPSGAGKFPAGHSVIQLARRQDSDLVQCGVTSPSSAEATGKLAVDTFPARVIKHRAAFLEAKGQGALDPNGTRVRHGSGPPSSGGGLYRDMGAQGGRPSLIARIPVARILGDPEEESWSPSLTNLEKVVVTDVTSNFLTVTIKESNTDQGFFKEKR
– | – | binds | binds | – | GFP-tagged CBX4, overexpressed (protein, UniProt O00257 1-560) MELPAVGEHVFAVESIEKKRIRKGRVEYLVKWRGWSPKYNTWEPEENILDPRLLIAFQNRERQEQLMGYRKRGPKPKPLVVQVPTFARRSNVLTGLQDSSTDNRAKLDLGAQGKGQGHQYELNSKKHHQYQPHSKERAGKPPPPGKSGKYYYQLNSKKHHPYQPDPKMYDLQYQGGHKEAPSPTCPDLGAKSHPPDKWAQGAGAKGYLGAVKPLAGAAGAPGKGSEKGPPNGMMPAPKEAVTGNGIGGKMKIVKNKNKNGRIVIVMSKYMENGMQAVKIKSGEVAEGEARSPSHKKRAADERHPPADRTFKKAAGAEEKKVEAPPKRREEEVSGVSDPQPQDAGSRKLSPTKEAFGEQPLQLTTKPDLLAWDPARNTHPPSHHPHPHPHHHHHHHHHHHHAVGLNLSHVRKRCLSETHGEREPCKKRLTARSISTPTCLGGSPAAERPADLPPAAALPQPEVILLDSDLDEPIDLRCVKTRSEAGEPPSSLQVKPETPASAAVAVAAAAAPTTTAEKPPAEAQDEPAESLSEFKPFFGNIIITDVTANCLTVTFKEYVTV
– | – | binds | binds | – | HPH1 (Rae28), untagged, overexpressed (protein, UniProt P78364 1-1004) METESEQNSNSTNGSSSSGGSSRPQIAQMSLYERQAVQALQALQRQPNAAQYFHQFMLQQQLSNAQLHSLAAVQQATIAASRQASSPNTSTTQQQTTTTQASINLATTSAAQLISRSQSVSSPSATTLTQSVLLGNTTSPPLNQSQAQMYLRPQLGNLLQVNRTLGRNVPLASQLILMPNGAVAAVQQEVPSAQSPGVHADADQVQNLAVRNQQASAQGPQMQGSTQKAIPPGASPVSSLSQASSQALAVAQASSGATNQSLNLSQAGGGSGNSIPGSMGPGGGGQAHGGLGQLPSSGMGGGSCPRKGTGVVQPLPAAQTVTVSQGSQTEAESAAAKKAEADGSGQQNVGMNLTRTATPAPSQTLISSATYTQIQPHSLIQQQQQIHLQQKQVVIQQQIAIHHQQQFQHRQSQLLHTATHLQLAQQQQQQQQQQQQQQQPQATTLTAPQPPQVPPTQQVPPSQSQQQAQTLVVQPMLQSSPLSLPPDAAPKPPIPIQSKPPVAPIKPPQLGAAKMSAAQQPPPHIPVQVVGTRQPGTAQAQALGLAQLAAAVPTSRGMPGTVQSGQAHLASSPPSSQAPGALQECPPTLAPGMTLAPVQGTAHVVKGGATTSSPVVAQVPAAFYMQSVHLPGKPQTLAVKRKADSEEERDDVSTLGSMLPAKASPVAESPKVMDEKSSLGEKAESVANVNANTPSSELVALTPAPSVPPPTLAMVSRQMGDSKPPQAIVKPQILTHIIEGFVIQEGAEPFPVGCSQLLKESEKPLQTGLPTGLTENQSGGPLGVDSPSAELDKKANLLKCEYCGKYAPAEQFRGSKRFCSMTCAKRYNVSCSHQFRLKRKKMKEFQEANYARVRRRGPRRSSSDIARAKIQGKCHRGQEDSSRGSDNSSYDEALSPTSPGPLSVRAGHGERDLGNPNTAPPTPELHGINPVFLSSNPSRWSVEEVYEFIASLQGCQEIAEEFRSQEIDGQALLLLKEEHLMSAMNIKLGPALKICAKINVLKET
– | – | binds | binds | – | HPH1, endogenous (protein, UniProt P78364 1-1004) METESEQNSNSTNGSSSSGGSSRPQIAQMSLYERQAVQALQALQRQPNAAQYFHQFMLQQQLSNAQLHSLAAVQQATIAASRQASSPNTSTTQQQTTTTQASINLATTSAAQLISRSQSVSSPSATTLTQSVLLGNTTSPPLNQSQAQMYLRPQLGNLLQVNRTLGRNVPLASQLILMPNGAVAAVQQEVPSAQSPGVHADADQVQNLAVRNQQASAQGPQMQGSTQKAIPPGASPVSSLSQASSQALAVAQASSGATNQSLNLSQAGGGSGNSIPGSMGPGGGGQAHGGLGQLPSSGMGGGSCPRKGTGVVQPLPAAQTVTVSQGSQTEAESAAAKKAEADGSGQQNVGMNLTRTATPAPSQTLISSATYTQIQPHSLIQQQQQIHLQQKQVVIQQQIAIHHQQQFQHRQSQLLHTATHLQLAQQQQQQQQQQQQQQQPQATTLTAPQPPQVPPTQQVPPSQSQQQAQTLVVQPMLQSSPLSLPPDAAPKPPIPIQSKPPVAPIKPPQLGAAKMSAAQQPPPHIPVQVVGTRQPGTAQAQALGLAQLAAAVPTSRGMPGTVQSGQAHLASSPPSSQAPGALQECPPTLAPGMTLAPVQGTAHVVKGGATTSSPVVAQVPAAFYMQSVHLPGKPQTLAVKRKADSEEERDDVSTLGSMLPAKASPVAESPKVMDEKSSLGEKAESVANVNANTPSSELVALTPAPSVPPPTLAMVSRQMGDSKPPQAIVKPQILTHIIEGFVIQEGAEPFPVGCSQLLKESEKPLQTGLPTGLTENQSGGPLGVDSPSAELDKKANLLKCEYCGKYAPAEQFRGSKRFCSMTCAKRYNVSCSHQFRLKRKKMKEFQEANYARVRRRGPRRSSSDIARAKIQGKCHRGQEDSSRGSDNSSYDEALSPTSPGPLSVRAGHGERDLGNPNTAPPTPELHGINPVFLSSNPSRWSVEEVYEFIASLQGCQEIAEEFRSQEIDGQALLLLKEEHLMSAMNIKLGPALKICAKINVLKET
